# Measured values taken from PubChem BioAssay AID463173 (ICCB-Longwood Screening Facility, Harvard Medical School, 2010).
# The whole screen tested about 52,000 compounds, of which about 4,300 (8.3%) were called active. Rule as the data show it: active = survival mostly below about 52% (no sharp cut-off); inactive = mostly above about 56%. The list shows a part of the results.
# Tested on: DeltatarO mutant
# Assay: S. aureus survival, RN4220 and DeltatarO strains – OD600, teichoic acid synthesis inhibitors, primary screen (AID 463173)
# Conditions: S. aureus RN4220 wild type/DeltatarO growth, OD600, 18 h, stronger effect = lower value, screened at 18.75 µg/mL (by protocol)
row,Compound,survival
1,CCCc1ccc(OCC(=O)Nc2scc(-c3cccs3)c2C(=O)OC)cc1,inactive: 67%
2,O=C(c1ccc2c(c1)N(Cc1ccc(F)cc1)CCS2)N1CCN(c2ccccc2)CC1,inactive: 74%
3,Cc1cc(C)c(NC(=O)c2ccc3nc(C(C)C)oc3c2)c(C)c1,inactive: 94%
4,CCOCCn1c(=NC(=O)c2ccc3c(c2)OCCO3)sc2cc(OCC)ccc21,inactive: 88%
5,COCC(C)NC(=O)C1=CC(c2ccc3c(c2)OCO3)=NS(=O)(=O)N1C (stereo not given),inactive: 104%
6,Cc1ccc(Cl)cc1N1CCN(C(=O)c2cnc3c(-c4ccc(F)cc4)c(C)nn3c2C)CC1,inactive: 89%
7,O=C(Nc1ccccc1C(F)(F)F)C1CCN(c2nnc(-n3cccc3)s2)CC1,inactive: 89%
8,CCC(C(=O)NC1CCCCC1)n1nc(C)c2sc3ccccc3c2c1=O (stereo not given),inactive: 78%
9,CCN(CC)S(=O)(=O)c1ccc2c(c1)c(=O)c(C(=O)N1CCN(c3cc(C)ccc3C)CC1)cn2C,inactive: 71%
10,O=C(Cn1cc(SCc2ccc(F)cc2)c2ccccc21)N1CCCC1,inactive: 53%
11,CCc1nnc(NC(=O)c2nc(SCc3ccc(F)cc3)ncc2Cl)s1,active: 29%
12,CCC(c1nnnn1CC1CCCO1)N(Cc1ccc2c(c1)OCO2)Cc1cc2cc(C)cc(C)c2[nH]c1=O (stereo not given),inactive: 65%
13,O=C(OCC1CCCO1)c1ccc2c(c1)N(Cc1c(F)cccc1Cl)C(=O)c1ccccc1S2(=O)=O (stereo not given),inactive: 67%
14,Cn1ccc2c(OCC(=O)NCc3ccc(F)cc3)cccc2c1=O,inactive: 91%
15,Cc1ccc(C(=O)c2cn(Cc3ccccc3)c3cc4c(cc3c2=O)OCCO4)cc1,inactive: 105%
16,CCc1cccc(NC(=O)CSc2nccn2C)c1,inactive: 70%
17,COc1c(Cl)cc(Cl)cc1C(=O)Nc1cccc2cccnc12,inactive: 143%
18,NC(=O)C1CCN(c2nc(C3CC3)nc3c2nnn3Cc2ccccc2Cl)CC1,inactive: 97%
19,NNc1nc2ccccc2c(=O)n1Cc1ccccc1,inactive: 100%
20,COc1ccc(NCc2cccn2-c2nnc(N3CCC(C)CC3)s2)c(OC)c1,inactive: 73%

row,Compound,survival
1,Cc1cccc(-c2nc(S(=O)(=O)c3ccccc3)c(N3CCN(c4ccccc4)CC3)o2)c1,inactive: 112%
2,CSc1ccc(-c2nc3cc(C)ccn3c2Nc2ccc(C)cc2)cc1,inactive: 95%
3,O=C(CSc1nc2c(c(=O)[nH]1)CCC2)Nc1cc(C(F)(F)F)ccc1Cl,inactive: 76%
4,CCc1ccc(NC(=O)C(=O)NCCc2sc(-c3ccc(C)cc3)nc2C)cc1,inactive: 81%
5,CCCCCOc1ccccc1Cn1c(=O)oc2ccc(C)cc21,active: 5%
6,Cc1ccc(Nc2c(-c3ccc(N4CCOCC4)cc3)nc3ncccn23)c(C)c1,inactive: 80%
7,COCCNC(=O)CCSc1nc(-c2ccc(OC)cc2)cc(C(F)(F)F)n1,inactive: 76%
8,Cc1nn(C(C)C(=O)Nc2cccc(F)c2)c(=O)c2c1sc1ccccc12 (stereo not given),inactive: 108%
9,O=C(CCN1CCOCC1)Nc1ccc(Cl)cc1,inactive: 100%
10,Cc1cccc(Cn2c(CNC(=O)c3ccccc3)nc3ccccc32)c1,inactive: 64%
11,CC(C)OCCCNC(=O)c1c2c(nc3ccccc13)C(=O)N(C1CCCCC1)C2,active: 25%
12,Cc1ccn2c(Nc3ccc(C(C)C)cc3)c(-c3ccsc3)nc2c1,inactive: 94%
13,CC(=O)c1ccc(NC(=O)CSc2nnc(NC(=O)NC3CCCCC3)s2)cc1,inactive: 73%
14,CCOC(=O)c1cc(-c2ccccc2)n(CC(=O)Nc2cc(Cl)c(OC)cc2OC)c1C,inactive: 118%
15,C=CCn1c(SCC(N)=O)nnc1-c1ccccc1O,inactive: 98%
16,Cc1cc(C)cc(Nc2ncnc3sc4c(c23)CCCC4)c1,active: 0%
17,Cc1cc(C)c(NC(=O)Nc2sc3nc4n(c(=O)c3c2C)CCC(C)CC4)c(C)c1 (stereo not given),inactive: 69%
18,Cc1cc(C)c(NS(=O)(=O)c2ccc3c(c2)NC(=O)CCS3)c(C)c1,inactive: 76%
19,O=C(COc1ccc(Cl)cc1)N(Cc1ccco1)c1ccccn1,inactive: 61%
20,CC1CCCN(Cc2c(O)ccc3c(=O)c(-c4ccccc4Cl)c(C(F)(F)F)oc23)C1 (stereo not given),active: 43%

row,Compound,survival
1,O=C(NC1CCCC1)c1ccc(CSc2nc3cccnc3n2Cc2ccccc2F)cc1,active: 37%
2,Cc1ccccc1Nc1ncccc1C(=O)N1CCOCC1,inactive: 82%
3,O=C(Cn1c(-c2cccs2)cc2ccccc21)NCCCN1CCN(c2ccc(F)cc2)CC1,inactive: 107%
4,Cc1cc(C)n(CC(=O)Nc2nc(-c3ccccc3)cs2)n1,inactive: 72%
5,CCOC(=O)c1cnn2c(C(F)(F)F)cc(-c3ccc(Br)cc3)nc12,inactive: 102%
6,COc1ccc(-c2cnc(C)o2)cc1S(=O)(=O)Nc1cccc(C(F)(F)F)c1,inactive: 80%
7,CCOC(=O)c1cnc2ccc(OC(F)(F)F)cc2c1Nc1ccccc1C(=O)O,active: 37%
8,NCCCc1nc2ccccc2[nH]1,inactive: 95%
9,Cc1ccc(NC(=O)CCCN2C(=O)COc3ccc(C)cc32)c(Cl)c1,inactive: 121%
10,COc1cccc(/C=C/c2nc(C#N)c(N3CCCCCC3)o2)c1,inactive: 61%
11,Cc1cccc(CNC(=O)CCCN2C(=O)c3cccnc3Oc3ccccc32)c1,inactive: 94%
12,COc1ccc(-c2noc(-c3ccc(NCc4ccco4)c([N+](=O)[O-])c3)n2)cc1OC,active: 43%
13,CCc1ccc(N2CC(c3nc4ccccc4n3Cc3ccccc3C)CC2=O)cc1 (stereo not given),active: 52%
14,CCOc1ccc(C(=O)NCCc2sc(-c3cccc(F)c3)nc2C)cc1OCC,inactive: 72%
15,O=C(Nc1ccc(OCc2cc(=O)n3c4c(sc3n2)CCCC4)cc1)c1ccc(F)cc1,inactive: 76%
16,Cc1sc2ncn3ncnc3c2c1C,inactive: 89%
17,Cc1ccccc1-c1noc(CSc2nc(-c3ccc(F)cc3)cc(=O)[nH]2)n1,active: 37%
18,COc1ccc(-n2nnnc2SCC(=O)NCCc2ccccc2)cc1,inactive: 53%
19,COC(=O)Cc1c(C)c2ccc3c(c2oc1=O)CN(Cc1ccc(C)cc1)CO3,inactive: 110%
20,NC(=O)C1CCN(c2ncnc3c2cnn3-c2cccc(Cl)c2)CC1,inactive: 105%
